{"source": "patent US11219214B2", "about": "“Benzosultams and analogues and their use as fungicides” (Bayer CropScience Aktiengesellschaft, priority 2016, dated 2022)"}
{"assay": "log P determination by HPLC on a reversed-phase column (C 18), EEC Directive 79/831 Annex V.A8, Methods A, B, C", "settings": "HPLC reversed-phase C 18, Method A: 40° C., 0.1% aqueous formic acid and acetonitrile, linear gradient 10% to 95% acetonitrile", "protocol": "(§1) In table 1a, the log P values were determined in accordance with EEC Directive 79/831 Annex V.A8 by HPLC (High Performance Liquid Chromatography) on a reversed-phase column (C 18), using the method described below:\n(§2) Method A: temperature: 40° C.; mobile phases: 0.1% aqueous formic acid and acetonitrile; linear gradient from 10% acetonitrile to 95% acetonitrile;\n(§3) Method B: temperature: 40° C.; mobile phases: 0.001 molar ammonium acetate solution in water and acetonitrile; linear gradient from 10% acetonitrile to 95% acetonitrile;\n(§4) Method C: temperature: 55° C.; mobile phases: 0.1% aqueous formic acid and acetonitrile; linear gradient from 10% acetonitrile to 95% acetonitrile.\n(§5) If more than one Log P value is available within the same method, all the values are given and separated by “;”.\n(§6) Iambda-max-values were determined using UV-spectra from 200 nm to 400 nm and the peak values of the chromatographic signals."}
{"compound": "O=S1(=O)Cc2ccccc2N1c1cnc2c(F)cccc2c1", "note": "[I.018, 3-(2,2-dioxido-2,1-benzothiazol-1(3H)-yl)-8-fluoroquinoline]", "chromatographic logP": 2.46}
{"compound": "CC1(C)c2ccccc2N(c2cnc3c(F)cccc3c2)S1(=O)=O", "note": "[I.015, 3-(3,3-dimethyl-2,2-dioxido-2,1-benzothiazol-1(3H)-yl)-8-fluoroquinoline]", "chromatographic logP": 3.05}
{"assay": "log P determination by HPLC on a reversed-phase column (C 18), EEC Directive 79/831 Annex V.A8, Methods A, B, C", "settings": "HPLC reversed-phase C 18, Method C: 55° C., 0.1% aqueous formic acid and acetonitrile, linear gradient 10% to 95% acetonitrile", "protocol": "as §1, §2, §3, §4, §5, §6"}
{"compound": "CC1Cc2ccccc2N(c2cnc3ccccc3c2)S1(=O)=O", "note": "(stereo not shown) [I.158, 3-methyl-1-(quinolin-3-yl)-3,4-dihydro-1H-2,1-benzothiazine 2,2-dioxide]", "chromatographic logP": 2.58}
{"compound": "CC1(C)C(=O)c2ccccc2N(c2cnc3ccccc3c2)S1(=O)=O", "note": "[I.156, 3,3-dimethyl-1-(quinolin-3-yl)-1H-2,1-benzothiazin-4(3H)-one 2,2-dioxide]", "chromatographic logP": 2.93}
{"compound": "CC1C(C)(C)c2ccccc2N(c2cnc3ccccc3c2)S1(=O)=O", "note": "(stereo not shown) [I.173, 3,4,4-trimethyl-1-(quinolin-3-yl)-3,4-dihydro-1H-2,1-benzothiazine 2,2-dioxide]", "chromatographic logP": 3.57}
{"compound": "CC1(C)c2ccccc2N(c2cnc3ccccc3c2)S(=O)(=O)C1(C)C", "note": "[I.172, 3,3,4,4-tetramethyl-1-(quinolin-3-yl)-3,4-dihydro-1H-2,1-benzothiazine 2,2-dioxide]", "chromatographic logP": 3.85}
{"compound": "O=C1CS(=O)(=O)N(c2cnc3ccccc3c2)c2ccccc21", "note": "[I.159, 1-(quinolin-3-yl)-1H-2,1-benzothiazin-4(3H)-one 2,2-dioxide]", "chromatographic logP": 2.28}
{"compound": "CC1(C)CS(=O)(=O)N(c2cnc3ccccc3c2)c2ccccc21", "note": "[I.166, 4,4-dimethyl-1-(quinolin-3-yl)-3,4-dihydro-1H-2,1-benzothiazine 2,2-dioxide]", "chromatographic logP": 2.88}
{"compound": "CC1(C)C(F)(F)c2ccccc2N(c2cnc3ccccc3c2)S1(=O)=O", "note": "[I.163, 4,4-difluoro-3,3-dimethyl-1-(quinolin-3-yl)-3,4-dihydro-1H-2,1-benzothiazine 2,2-dioxide]", "chromatographic logP": 3.25}
{"compound": "CC1Cc2ccccc2N(c2cc3ccccc3[n+]([O-])c2)S1(=O)=O", "note": "(stereo not shown) [I.162, 3-methyl-1-(1-oxidoquinolin-3-yl)-3,4-dihydro-1H-2,1-benzothiazine 2,2-dioxide]", "chromatographic logP": 1.8}
